Source: paper PMC6919601, “Identification of Plasmodium dipeptidyl aminopeptidase allosteric inhibitors by high throughput screening” (PLoS ONE, 2019)
Screen size: about 110,000 compounds; about 230 (0.21%) showed an effect of 50% or more. Some of the results follow.

target: DPAP1 (Plasmodium falciparum, UniProt Q8IIJ9); experiment: primary screen, percent inhibition; read by cleavage of a fluorogenic dipeptide substrate; higher = more effect of the substance; parameters: species or system P. falciparum D10 trophozoite lysates; single well
Sequence (Q8IIJ9 whole entry, looked up): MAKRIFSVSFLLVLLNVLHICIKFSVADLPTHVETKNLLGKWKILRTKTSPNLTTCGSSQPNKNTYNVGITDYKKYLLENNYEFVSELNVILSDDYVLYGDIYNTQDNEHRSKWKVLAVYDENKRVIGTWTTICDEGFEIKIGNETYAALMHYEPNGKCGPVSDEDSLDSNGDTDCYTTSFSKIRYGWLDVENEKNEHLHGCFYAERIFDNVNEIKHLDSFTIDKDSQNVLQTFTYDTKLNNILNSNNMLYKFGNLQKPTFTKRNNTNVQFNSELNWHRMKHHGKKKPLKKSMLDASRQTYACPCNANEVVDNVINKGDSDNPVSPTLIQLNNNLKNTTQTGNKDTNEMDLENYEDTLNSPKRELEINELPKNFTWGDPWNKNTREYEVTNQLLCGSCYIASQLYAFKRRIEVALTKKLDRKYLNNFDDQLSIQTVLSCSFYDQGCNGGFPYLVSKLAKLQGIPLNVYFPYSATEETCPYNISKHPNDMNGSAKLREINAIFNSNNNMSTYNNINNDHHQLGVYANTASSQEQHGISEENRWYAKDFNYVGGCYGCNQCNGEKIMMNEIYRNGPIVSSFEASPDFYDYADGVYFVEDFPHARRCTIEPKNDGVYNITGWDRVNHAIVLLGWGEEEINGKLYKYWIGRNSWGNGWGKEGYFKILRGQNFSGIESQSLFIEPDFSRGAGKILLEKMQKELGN
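Also: 30 min substrate incubation versus DMSO and 10 µM JCP410 controls.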

SMILES | % Inhibition @ 10 uM
CC(C)c1ccc(C2C(C(=O)c3ccccc3)=C(O)C(=O)N2CCCn2ccnc2)cc1 (stereo not shown) | -1.51%
c1ccc(CN2CCN(Cc3ccc4ccccc4c3)CC2)cc1 | -6.21%
OC1CCN(Cc2cccc(C(F)(F)F)c2)CC1 | -0.192%
CC1CCN(C(=O)c2cc(Br)cc(Br)c2)CC1 | 7.5%
O=C(O)CC(NS(=O)(=O)c1ccc(Cl)cc1)c1ccccc1 (stereo not shown) | 4.74%
COc1ccc(C2C(C#N)=C(N)Oc3c2cc(Cl)c2ccccc32)cc1 (stereo not shown) | 5.09%
c1ccc2c(SCCc3ccncc3)cccc2c1 | 0.968%
Cc1cc(C)c2c(-n3cccc3)c(C(=O)N3CCN(C(=O)c4ccco4)CC3)sc2n1 | -4.68%
O=C(NC(=O)c1cccc(C(F)(F)F)c1)OC[C@@H]1CCCN2CCCCC12 (stereo partly shown) | -4.49%
Cc1ccc(-c2nc3sc(C)c(C)c3c(=O)o2)cc1 | 1.27%
CCc1ccc(CNC(=O)CCc2cn(C)c3ccccc23)cc1 | 5.23%
COC(=O)c1sccc1NC(=S)N1CC=C(c2ccccc2)CC1 | -8.16%
O=C(COc1ccc2ccccc2c1)Nc1ccc(S(=O)(=O)Nc2ccc(F)cc2)cc1 | 0.538%
COc1ccc2c(c1)CN(Cc1ccccc1)CO2 | -1.82%
CCO/C(O)=C1\C(C)=NC2=C(C(=O)CC(C)(C)C2)C1c1ccc(Br)o1 (stereo not shown) | 1.24%
CCOc1ccccc1-c1cc(NC(=O)Cn2ncc3c(=O)oc4ccccc4c32)on1 | -0.431%
COc1ccc2nc3sc(C(=O)NCCC(C)C)cc3cc2c1 | -5.98%
CCc1ccc(OCC(=O)N(Cc2cccc(Cl)c2)C2CCS(=O)(=O)C2)cc1 (stereo not shown) | -6.94%
CCCCC(=O)Nc1ccc(S(=O)(=O)NC(=O)CCC)cc1 | -3.19%
Cc1nn(CC(=O)NCCC(C)C)c(=O)c2cc3sccc3n12 | 1.8%
Brc1csc(CN2CCc3c([nH]c4ccccc34)C2)c1 | 7.55%
N#CC1=C(SCC(N)=O)NC(=O)CC1c1ccc(Br)cc1 (stereo not shown) | 1.38%
COc1cccc(C2C3=C(O)CC(C)(C)CC3=NC(C)=C2C(=O)Nc2cccc(C)n2)c1 (stereo not shown) | 4.09%
CCOCCn1c(CN(Cc2ccccc2)Cc2ccccc2)nc2c1c(=O)n(C)c(=O)n2C | 2%
COc1ccc(Cl)cc1N(CC(=O)NC(C)c1ccccc1)S(C)(=O)=O (stereo not shown) | -5.27%

SMILES | % Inhibition @ 10 uM
O=C(c1ccco1)N1CCc2ccccc21 | -3.65%
COc1cc(/C=C2/SC(=O)N(C(C)C)C2=O)cc2c1OCO2 | -5.92%
CN1C(=O)C(=Cc2ccc(Sc3cccc4ccccc34)o2)C(=O)N(C)C1=O | -6.89%
O=C1CC(c2cccc(C(F)(F)F)c2)c2ccc3ccccc3c2N1 (stereo not shown) | 6.18%
Cc1cc(C)cc(NC(=O)c2ccc(Cl)cc2Cl)c1 | -3.04%
CCc1ccc(S(=O)(=O)NC(CC(=O)O)c2ccccc2)cc1 (stereo not shown) | 3.04%
CCc1cccc(CC)c1NC(=O)c1cc(OC)c(OC)c(OC)c1 | -0.999%
Cc1cc(C)c(OCC(=O)Nc2ccc(F)cc2)c(C)c1 | 1.64%
CCCCNS(=O)(=O)c1ccc(NC(=O)C2CCCO2)cc1 (stereo not shown) | 0.686%
CCC(C(=O)NCc1ccc(OC)cc1)n1nc(C)n2c(cc3sccc32)c1=O (stereo not shown) | 1.8%
Cc1noc(C)c1S(=O)(=O)N1CCN(C(=O)c2ccco2)CC1 | -1.83%
COc1ccc(-c2nc(CSc3nc4ccncc4[nH]3)c(C)o2)cc1OC | -2.37%
CC(C)N1C(=O)/C(=C\c2ccc(C(=O)O)cc2)S/C1=N\c1ccccc1 | 3.79%
CN(CC(=O)N1CC=C(c2ccccc2)CC1)S(=O)(=O)c1cccs1 | 3.5%
COc1cc(OC)c2c(O)cc(O)nc2c1 | 3.44%
CCOc1ccccc1C1C2=C(O)CC(C)(C)CC2=Nc2ccccc2N1C(C)=O (stereo not shown) | 0.76%
Cc1cc(OCC(=O)Nc2ccc(S(=O)(=O)N3CCc4ccccc43)cc2)ccc1Cl | 8.18%
Cc1ccc(C(=O)Nc2c(-c3ccc(F)cc3)nc3ccccn23)cc1 | -0.58%
O=C(NCc1ccco1)c1ccc2nc3ccsc3c(=O)n2c1 | -3.35%
COc1ccc(NS(=O)(=O)c2ccc(C)c(C(=O)O)c2)cc1 | -2.82%
COc1ccccc1/C=C/c1nc(C#N)c(NCc2ccc3c(c2)OCO3)o1 | -0.808%
N#Cc1ccc(Cn2c(=O)n(CCc3c[nH]c4ccccc34)c(=O)c3cccnc32)cc1 | 3.32%
COC(=O)Nc1scc(-c2cc(C)ccc2C)c1C#N | -1.98%
CC(C)CNC(=O)C(=O)Nc1cccc(Cl)c1 | -5.9%
CCOC(=O)c1c(NC(=O)COc2ccccc2)sc2c1CC(C)(C)NC2(C)C | -3.27%

SMILES | % Inhibition @ 10 uM
CC(=O)NC1=NC(=O)/C(=C/c2cc(C)n(-c3cccc(C(=O)O)c3)c2C)S1 | 4.22%
CN1CCN(c2cnn(C34CC5CC(CC(C5)C3)C4)c(=O)c2Cl)CC1 | 1.72%
CCCNC(=O)CCc1c(C)nc2c(c(C)nn2-c2ccc(C)c(C)c2)c1C | 4.14%
COc1ccc(CCNC(=O)CCCn2nc(C)n3ccnc3c2=O)cc1OC | -1.6%
CCOC(=O)c1cnn(-c2ccc(OC(F)(F)F)cc2)c1N | 3.81%
COCC(C)Nc1ncnc2c1c(-c1ccccc1)cn2-c1cccc(C)c1 (stereo not shown) | -1.62%
C1=C(c2nc3ccccc3[nH]2)CCN(Cc2ccccc2)C1 | -2.44%
Cc1cc(OCC(=O)N(Cc2ccc(C(C)C)cc2)C2CCS(=O)(=O)C2)ccc1Cl (stereo not shown) | 2.1%
CC1CCCN(c2nc3c(S(=O)(=O)c4ccccc4)nnn3c3ccsc23)C1 (stereo not shown) | 3.8%
COC(=O)C1=C(C)N(C)C(=O)/C1=C\c1ccc2c(c1)OCO2 | 1.97%
CN1CCN(C)C1=NC(c1ccccc1)(c1ccccc1)c1ccccc1 | 0.131%
CCOC(=O)c1c(NC(=O)c2ccncc2)sc2c1CCC2 | 14.5%
Cc1ccc(SCc2cccc(C(=O)O)c2)cc1C | 1.64%
CCn1ncc(C(=O)Nc2ccc(F)cc2)c1C | -3.05%
CC1(C)CC2CC(C)(CN2C(=O)c2cc(-c3ccccc3O)on2)C1 (stereo not shown) | -0.591%
Cc1ccc(NC(=O)C2CCC(C)(C(=O)O)C2(C)C)cc1 (stereo not shown) | -2.66%
COc1cc(CNC(=O)c2ccc(Cl)cc2)cc(OC)c1OC | -4.43%
COc1ccc(/C=C2/N=C(c3ccc(Br)cc3)NC2=O)cc1 | -4.11%
COC(=O)c1c(NC(=O)Cc2ccccc2)sc(C(=O)Nc2ccccc2)c1C | 1.43%
CC1CC(C)CN(C(=O)c2ccc([N+](=O)[O-])cc2)C1 (stereo not shown) | -1.48%
CCC(=O)C1=C(NCCc2c(C)[nH]c3ccccc23)CC(c2ccccc2)CC1=O (stereo not shown) | 5.88%
COc1cc(C(=O)Nc2ncccc2Cl)cc(OC)c1OC | -4.93%
CCCNC(=O)CSc1ncc(C(=O)OCC)c(N)n1 | 0.677%
c1cncc(CNC2CCc3ccccc3C2)c1 (stereo not shown) | -0.0908%
CCOC(=O)C1=C(C)NC(=O)NC1c1cc(Cl)ccc1O (stereo not shown) | -1.91%

SMILES | % Inhibition @ 10 uM
CCN(CCCNC(=O)Cn1cnc2c(nc3n2CCCCC3)c1=O)Cc1ccccc1 | 6.99%
FC(F)(F)COc1nc(N2CCCCC2)nc(N2CCNCC2)n1 | -4.35%
CCOc1ccc(CN2CCOCC2)cc1 | -1.78%
COc1ccc(N(CC(=O)Nc2ccccc2C)S(C)(=O)=O)c(OC)c1 | 4.76%
CCCCN(C(=O)Nc1cn(C)c(=O)c2ccccc12)C1CCN(C(C)=O)CC1 | 7.22%
CCN1CCCC1CNC(=O)c1cc(C)nc2c1c(C)nn2-c1cccc(Cl)c1C (stereo not shown) | 6.11%
CC(=O)N1CCC(C(=O)Nc2nc(-c3ccccc3)ns2)CC1 | -6.55%
N#CSCC(=O)n1c2ccccc2c2ccccc21 | 0.587%
Cc1ccccc1CNC(=O)c1ccccc1NC(=O)C1CC=CCC1C(=O)O (stereo not shown) | 2.49%
OC1=C2C(=Nc3ccccc3NC2c2ccc(F)cc2)CC(c2cccs2)C1 (stereo not shown) | 1.57%
COc1ccc2c(=O)c(-c3ccccc3C)c(C(F)(F)F)oc2c1C | 9.21%
CSC1=C(C#N)C2(CCCCC2)C(C#N)C(=O)N1 (stereo not shown) | -0.736%
COc1ccc(CN2CCN(Cc3cccc(Br)c3)CC2)c(OC)c1OC | -0.822%
CCOC(=O)C1=CN(Cc2ccc(OC)cc2)C=C(C(=O)OCC)C1c1ccc2c(c1)OCO2 | -1.48%
CCCCC(=O)Nc1ccc(N2CCN(S(C)(=O)=O)CC2)cc1 | 0.343%
Cc1ccc2c(cnn2C(=O)CCC(=O)NCCCOC(C)C)c1 | -2.88%
CC(=O)N/C(=C\c1ccccc1)C(=O)Nc1ccc(C)cc1 | -2.66%
CCCNS(=O)(=O)c1ccc([N+](=O)[O-])cc1 | -3.55%
CCCCOc1ccc(C2C(=O)N(C3CCCCC3)CC(=O)N2Cc2cccs2)cc1 (stereo not shown) | -0.519%
O=[N+]([O-])c1ccc(N2CCN(C3CCCCCC3)CC2)cc1 | -1.81%
c1ccc(C(c2ccccc2)N2CCN(c3ncnc4[nH]cnc34)CC2)cc1 | -3.24%
Cc1ccc(-c2nc(C#N)c(NCc3ccccc3)o2)cc1 | -2.59%
COCCNC(=O)CSc1cn(CC(=O)N2CCCC2)c2ccccc12 | -1.97%
COc1ccc(CCNC(=O)c2cc(O)nc3ccc(S(=O)(=O)N4CCCC4)cc23)cc1OC | 3.89%
O=[N+]([O-])c1ccc(CNc2ccc(F)c(F)c2)s1 | 5.2%
